Screen size: about 310,000 compounds; about 14,000 (4.5%) showed an effect of 50% or more. Effects have a minus sign here. The list shows a part of the results.
target: human ether-à-go-go-related gene (hERG) potassium channel (human, UniProt Q12809); assay: primary screen, population patch clamp on CHO cells stably expressing hERG
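Also: peak tail current of the secondary pulse compared with the same well before compound.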

human ether-à-go-go-related gene (hERG) potassium channel, sequence (Q12809 whole entry, looked up): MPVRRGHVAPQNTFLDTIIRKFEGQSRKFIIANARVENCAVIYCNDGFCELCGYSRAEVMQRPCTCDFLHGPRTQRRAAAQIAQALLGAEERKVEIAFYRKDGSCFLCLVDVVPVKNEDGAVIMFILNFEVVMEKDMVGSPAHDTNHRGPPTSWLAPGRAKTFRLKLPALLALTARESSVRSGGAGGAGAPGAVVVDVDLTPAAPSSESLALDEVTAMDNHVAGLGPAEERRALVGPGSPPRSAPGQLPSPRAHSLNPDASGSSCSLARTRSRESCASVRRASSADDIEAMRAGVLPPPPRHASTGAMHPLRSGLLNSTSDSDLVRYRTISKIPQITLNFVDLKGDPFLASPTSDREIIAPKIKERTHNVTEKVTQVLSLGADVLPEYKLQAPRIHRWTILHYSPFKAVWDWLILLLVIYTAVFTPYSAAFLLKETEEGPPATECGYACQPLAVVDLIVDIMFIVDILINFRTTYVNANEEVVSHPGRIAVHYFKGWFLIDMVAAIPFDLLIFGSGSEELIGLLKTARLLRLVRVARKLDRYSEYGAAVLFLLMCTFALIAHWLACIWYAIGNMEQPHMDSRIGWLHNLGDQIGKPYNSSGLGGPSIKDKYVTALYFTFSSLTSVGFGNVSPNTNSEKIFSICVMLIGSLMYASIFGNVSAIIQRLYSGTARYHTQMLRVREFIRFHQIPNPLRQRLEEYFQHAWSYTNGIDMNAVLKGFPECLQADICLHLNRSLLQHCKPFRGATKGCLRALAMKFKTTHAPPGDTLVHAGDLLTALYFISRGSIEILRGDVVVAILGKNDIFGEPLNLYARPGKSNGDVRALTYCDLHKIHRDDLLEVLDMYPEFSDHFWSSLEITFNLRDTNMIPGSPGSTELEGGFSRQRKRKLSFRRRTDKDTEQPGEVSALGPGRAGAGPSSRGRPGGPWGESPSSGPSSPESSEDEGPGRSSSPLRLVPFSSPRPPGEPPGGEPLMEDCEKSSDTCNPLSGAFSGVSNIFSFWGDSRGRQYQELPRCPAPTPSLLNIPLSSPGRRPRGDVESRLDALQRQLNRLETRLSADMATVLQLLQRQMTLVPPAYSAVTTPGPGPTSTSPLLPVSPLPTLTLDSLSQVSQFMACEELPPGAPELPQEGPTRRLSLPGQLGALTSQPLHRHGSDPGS

| SMILES | hERG current change (%, negative = inhibition) at 10uM [%] |
| --- | --- |
| N/C(=N\OC(=O)CCc1ccccc1)c1cccnc1 | 16.4 |
| CCOC(=O)CSc1ncc(-c2cccc(Cl)c2)cn1 | -17.4 |
| CCOC(=O)C1CCN(S(=O)(=O)c2c(C)n(C)c(=O)n(C)c2=O)CC1 | -1.58 |
| Cc1ccc2nc(NC3=NC(CC(=O)O)C(=O)N3)nc(C)c2c1 (stereo not shown) | 7.55 |
| O=C(NCC(c1cccnc1)N1CCOCC1)c1cccs1 (stereo not shown) | 10.1 |
| COc1cccc(Oc2nccc(N(C)C)c2C#N)c1 | 13.5 |
| O=[N+]([O-])c1cc2c(cc1/C=N/n1c(-c3ccccn3)n[nH]c1=S)OCO2 | 10.9 |
| Cc1ccc(NC(=O)c2ccco2)c(NC(=O)c2ccccc2)c1 | 1.58 |
| c1ccc2c(c1)OCC(CNc1ncnc3sccc13)O2 (stereo not shown) | -20.9 |
| N#CC1=C(N)S[C@@H](C(=O)c2ccc(F)cc2)[C@@H]1c1cccs1 | -14.8 |
| CCn1cc(C(=O)NCc2ccccc2Cl)cn1 | 11.7 |
| O=C(NCc1ccccn1)C(=O)NCC1OCCN1S(=O)(=O)c1ccc(Br)cc1 (stereo not shown) | -11.5 |
| Cc1ccc(NNC(=O)c2cccs2)cc1Cl | 9.61 |
| COc1ccccc1Oc1coc2c(CN(C)C)c(O)ccc2c1=O | -11 |
| O=C(NCCC1=CCCCC1)c1cc(S(=O)(=O)N2CCCCC2)ccc1Cl | 1.24 |
| O=C(N/N=C/c1ccco1)c1ccccc1OCc1ccccc1Cl | -82.8 |
| Cc1ccc(NC(=O)NC(=O)c2cnccc2C(F)(F)F)c(C)c1 | -5.48 |
| CCSc1nnc(NC(=O)[C@@H](NC(=O)c2cc(OC)cc(OC)c2)C(C)C)s1 | -10.1 |
| CCOC(=O)C1CCCN(c2c(N3CCN(c4cccc(Cl)c4)CC3)c(=O)c2=O)C1 (stereo not shown) | -41.7 |
| NC(=O)c1cn(C2OC(CO)C(O)C2O)c2ncnc(N)c12.O (stereo not shown) | 2.67 |
| O=c1[nH]c(SCc2cccc(F)c2)nc2c1CCCC2 | -1.59 |
| Cn1c(=O)n(CC(=O)Nc2cccnc2)c2ccccc21 | -0.477 |

| SMILES | hERG current change (%, negative = inhibition) at 10uM [%] |
| --- | --- |
| CCCn1c(SCC(=O)Nc2ccc(Cl)cc2)n[nH]c1=O | 5.02 |
| COc1cc(CN2CCNC(=O)C2CC(=O)N2CCCCO2)cc(OC)c1 (stereo not shown) | 5 |
| CN(C)CCCN(CCCN(C)C)C(=S)Nc1ccc(S(=O)(=O)N2CCOCC2)cc1 | 5.9 |
| Cc1ccccc1Cn1ccc(NC(=O)c2onc(C)c2Cl)n1 | 19.1 |
| COc1cc(C(=O)NCCN2C(=O)S/C(=C\c3cccs3)C2=O)cc(OC)c1OC | -18.4 |
| CCCCn1c(NC(C)CC)nc2c1c(=O)[nH]c(=O)n2C (stereo not shown) | 9.92 |
| O=c1oc2cc(OCc3ccc(F)cc3F)ccc2cc1-c1ccccn1 | 13.2 |
| CC(C)(C)NC(=O)COC(=O)c1ccc(F)cc1Cl | 14.6 |
| C/C(=C\c1ccccc1)CN1CCC(C(=O)N2CCC(C)CC2)CC1.O=C(O)C(=O)O | -63 |
| CC(C)CN(C(=O)COC(=O)c1ccc(Cl)c(N)c1)c1c(N)n(Cc2ccccc2)c(=O)[nH]c1=O | -29.2 |
| CCOC(=O)C1=C(C)N(c2ccc(C)c(C)c2)C(=O)/C1=C\c1ccco1 | -0.86 |
| Cc1ccc(CSCCNS(=O)(=O)c2ccc([N+](=O)[O-])cc2)cc1 | -4.18 |
| CC(=O)C1=C(C)NC(SCC(=O)Nc2nc3ccccc3s2)=C(C#N)C1c1ccc(Cl)cc1 (stereo not shown) | 3.73 |
| COc1ccccc1-c1cc(C(=O)N/N=C/c2ccoc2)c2ccccc2n1 | -6.5 |
| O=C(C1=C[C@H](c2csc3ccccc23)C[C@H](OCc2ccc(CO)cc2)O1)N1CCOCC1 | -59.2 |
| COc1ccc(Cc2nc3ccc(C(=O)NCCCSC)cc3o2)cc1OC | 0.503 |
| Cc1cc(C)n(C(=O)c2ccc(S(=O)(=O)N3CCOCC3)cc2)n1 | 0.562 |
| Cc1cc(N2CCCCC2)nc2ccc(NC(=O)CCC(=O)NCCC(C)C)cc12 | -3.35 |
| O=C(O)c1ccc(CN(c2ccccc2)S(=O)(=O)c2ccccc2)cc1 | 31 |
| COc1cc(C(=O)OCCCN=C2NS(=O)(=O)c3ccccc32)cc(OC)c1OC | 21.8 |
| CCOc1ccc(C(=O)c2ccc(OCC)c(N)c2)cc1N | 0.972 |
| CC(C)c1ccc(NC2CCCN(C(=O)CCN3CCCCO3)C2)cc1 (stereo not shown) | 1.87 |

| SMILES | hERG current change (%, negative = inhibition) at 10uM [%] |
| --- | --- |
| Cn1c(/C(C#N)=C(\O)c2cccc(F)c2)nc2ccccc21 | 14.8 |
| CC1(C)Cc2c(C#N)c(N3CCOCC3)nc(-c3ccccc3)c2CO1 | -12.1 |
| CCC(C)Oc1nc2ccccc2nc1NS(=O)(=O)c1ccccc1 (stereo not shown) | 6.45 |
| COc1ccc(S(=O)(=O)N2CCN=C2SCc2cccnc2)cc1 | -33 |
| COCCN1C(=O)/C(=C/c2ccc(N3CCCC3)cc2)SC1=S | 11.1 |
| CN(C(=O)COC(=O)c1cccc(S(=O)(=O)N2CCCCCC2)c1)C1CCS(=O)(=O)C1 (stereo not shown) | -7.52 |
| COCCNc1nnc(SCC(=O)NC2CCCCC2)s1 | 5.54 |
| CC(=O)c1ccc(NC(=O)CSc2nc(=O)n3cccc(C)c3n2)cc1 | -17.3 |
| COc1ccc(N(CC(=O)NC2CCCCC2)C(=O)c2ccc(C)s2)cc1OC | 9.7 |
| COc1ccc(NC2C=CS(=O)(=O)C2)cc1 (stereo not shown) | 0.937 |
| NNC(=O)c1cc(C23CC4CC(CC(C4)C2)C3)nc2ccccc12 | 5.8 |
| COc1ccccc1NC(=O)/C(C#N)=C/c1cccnc1 | -7.89 |
| O=C1NC(=S)NC(=O)C12C(c1ccccc1)NC(=S)NC2c1ccccc1 (stereo not shown) | 9.71 |
| CC(C)c1ccc(/C=C/C(=O)NNC(=O)c2cccnc2)cc1 | -25.6 |
| CCn1cc(C(=O)OCc2cccc(Br)c2)c(=O)c2ccc(C)nc21 | -33.5 |
| COC(=O)[C@@]1(Cc2ccccc2)[C@H]2c3cc(C(=O)N4CCCC4)n(Cc4ccsc4Br)c3C[C@H]2CN1C(=O)c1ccccc1 | 9.61 |
| CCCCCCOc1ccc(/C=C/C(=O)N2CCOCC2)cc1OC | -16.2 |
| CCOC(=O)c1cnc2c(C)c(C)ccc2c1Nc1ccc(S(=O)(=O)Nc2ncccn2)cc1 | -15.3 |
| COc1ccc(/C=C/C(=O)N2CCOCC2)cc1OC | 16.9 |
| O=C(NC(=S)NCc1ccc2c(c1)OCO2)c1ccccc1 | -10.2 |
| O=[N+]([O-])c1ccc(N/N=C2/CCCCC2c2ccccn2)c([N+](=O)[O-])c1 (stereo not shown) | -56.3 |
| CCOc1ccc(CCNC(=O)c2cc3c(s2)CS(=O)(=O)C3)cc1OCC | 11.6 |

| SMILES | hERG current change (%, negative = inhibition) at 10uM [%] |
| --- | --- |
| Cc1cccc(CC2CC(=O)N(c3ccc(C)cc3Br)C2=O)c1 (stereo not shown) | 2.33 |
| CN(C)c1ccc(CN(CC2CCCO2)C(=O)c2cccs2)cc1 (stereo not shown) | -2.59 |
| CCOC(=O)c1c(C)n(Cc2ccco2)c2ccc(O)cc12 | 20.1 |
| Cc1cc(OCC(=O)OCC(=O)Nc2cc(C(F)(F)F)ccc2N2CCOCC2)ccc1Cl | 11.1 |
| CSCCC(=O)N1C(C)CCCC1C(=O)O (stereo not shown) | 12.7 |
| Cl.OCCN(CC#CC(O)(c1ccccc1)C1CCCCC1)CCO (stereo not shown) | 6 |
| Cc1ccc2nc(SCC(=O)NC3CCCC3)nc(=O)n2c1 | -25.1 |
| COCC1CCCCN1C(=O)c1cc(COc2ccc3ncccc3c2)on1 (stereo not shown) | -47.2 |
| C[C@@]1([C@@H](NP(=O)(c2ccccc2)c2ccccc2)c2ccccc2)C[C@H]1CCO | 11.9 |
| COc1ccc(NC(=O)CN(C)C(=O)c2ccccc2OCC(=O)Nc2cccc(C(F)(F)F)c2)cc1 | -47.4 |
| O=C(NNc1ccc(-c2csnn2)cc1)c1ccccc1C(F)(F)F | -13.9 |
| O=C(CNCc1cccc2ccccc12)Nc1ccccc1[N+](=O)[O-] | 13.7 |
| COc1ccc(CNC(=O)c2n[nH]c3ccccc23)cc1OC | 11.6 |
| CCOC(=O)C1=C(C)NC(C)=C(C(=O)OCC)C1c1cc(N)ccc1OC(F)F | -3.26 |
| COc1ccc(NC(=O)CCCC(=O)OCC(=O)c2cccc(OC)c2)cc1 | 18.5 |
| O=C(O)CC(=O)Nc1ccccc1 | 21.4 |
| O=C(CSc1nc2ccccc2o1)N/N=C/c1ccccc1 | 2.74 |
| CCN(CC)CCCOC(=O)C(OC(C)C)(c1ccccc1)c1ccccc1.Cl | -31.9 |
| Oc1cc(O)cc(-c2cc3ccc(O)cc3o2)c1 | 26.1 |
| COc1ccc(OC)c(-c2csc(NC(=O)c3ccc4c(c3)OCO4)n2)c1 | -2.31 |
| CCN(CC)CCn1c(NCc2nc3ccccc3n2Cc2ccccc2)nc2ccccc21 | -2.44 |
| Cc1nn(CCc2n[nH]c(=S)n2C2CCCCC2)c(C)c1Br | 0.0958 |

Source: publication PMC4336329 (PLoS ONE, 2015)
